According to article PMC10380293 (International Journal of Molecular Sciences, 2023):

Molecular target: the molecule itself
Assay: asymmetrical flow field-flow fractionation (AF4); PCNA after 0 h at 37 °C, run at 25 °C in phosphate buffer pH 6.6 with NaCl, UV 280 nm, molecular weight estimated from a co-running size standard

B1: PCNA^C148S (unlabeled) (natural protein)
chain: not shown
notes: proliferating cell nuclear antigen (PCNA), human, disease-associated (ATLD2) variant C148S; C148S made by site directed mutagenesis in pET28b-PCNA; also called PCNA variant C148S; source: E. coli BL21(DE3), purified (nickel NTA, dialysed against PBS)
stoichiometry N: 3
